Data published in the supplement of paper PMC4466236.
Over roughly 33,000 sequences, “E-score (dimensionless, -0.5 to 0.5)” has its median near -0.058; the highest 2% begin near 0.35. Some of the results follow.

These sequences were tested on MvaT (assay: PBM 8-mer E-score (mean of HK and ME arrays) (E-score (dimensionless, -0.5 to 0.5)); higher = stronger relative binding preference; most listed sequences are background and not binding sites).
Procedure, shortened: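 Full-length P. aeruginosa MvaT, with glutathione S-transferase fused to its N-terminus (cloned into pTH6838 by isothermal assembly), was tested by protein binding microarray using a previously described protocol. Two universal double-stranded 60-mer arrays (ME and HK) were used, each with a constant 25-mer primer region and a variable 35-mer region covering all 8-mers. The rank-based 8-mer E-score (-0.5 to 0.5) is the mean of the two arrays, parsed with a custom Python script.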

Sequence | PBM 8-mer E-score
CTCCTAGA | -0.155
AAAATGAC | 0.0284
ACCCTCGA | -0.218
CGGAGGGC | -0.389
ACATTAAT | 0.382
CTTCAATC | -0.138
TCCGACGA | -0.00942
CAATTCCC | 0.0755
CATTGCAC | 0.0744
TGCGTCAA | -0.0324
AACCTAGC | -0.191
CCGTTGGA | -0.208
AGAGAGAG | -0.0553
GATTGTCA | -0.0327
ATAACCCA | 0.273
CAGACTAG | -0.115
CCATCGAA | -0.0707
CACCAGTG | -0.129
ACGGCTGC | -0.128
CTCAGGAG | -0.245
ATAATCGA | 0.3
CAGTTGGG | -0.121
AGAGTGGG | -0.249
ACTTCCGC | 0.0342
CAGTTCCC | -0.269

Sequence | PBM 8-mer E-score
CGCTGGAC | -0.195
AGTTTCAC | 0.104
ACGCATAC | 0.067
ACCGTCGC | -0.272
ACCTGTGG | -0.138
CTATTGCA | -0.00129
ACATGACT | -0.00631
CGCAGTCA | -0.176
AGGAAAAC | 0.0423
CTCACTGC | -0.115
ATGGCAGC | -0.0884
CATGTAGG | -0.032
ATGGATAA | 0.27
AGGGAATC | -0.177
ATAACGAT | 0.237
GACTATTA | 0.305
TTTAAAAA | 0.363
AAATACTG | 0.244
ACTGCGCG | -0.174
AGGGAAGA | -0.201
AGCCGTCG | -0.29
CATACGGG | -0.159
CAAGTATA | 0.373
CACGGAGG | -0.283
AGAGCCGA | -0.159

Sequence | PBM 8-mer E-score
AGCTTTCC | -0.2
ATCCGAAC | 0.0505
CTAGTACA | 0.0584
GGCTATTA | 0.0259
AGGTGAGA | -0.13
CGTACCAA | -0.0836
CTCTGTGA | -0.119
AAACAGCG | 0.02
GTGGACGA | -0.223
ACCACGAA | 0.0524
ACGTGATG | -0.114
CCATACCC | -0.297
CGGAGACA | 0.0514
CTGTGGGC | -0.231
GGCACCGA | -0.268
CTGGGAGC | -0.284
AGGAGGGC | -0.283
CCATTCCA | -0.0993
GCGAAATA | 0.224
AACGCGTC | -0.116
AAAACATC | 0.109
CAACAGAG | -0.0794
CGCGGTGA | -0.142
GAAGCAAC | -0.0872
AATCGCGC | 0.0207

Sequence | PBM 8-mer E-score
AAAATTCG | 0.227
ACCCTTAT | 0.226
CCCCCGGA | -0.286
CATAACGC | 0.0755
CATAGCGC | -0.167
GAACTTCC | -0.0433
AGATATCA | 0.194
TGGTATAA | 0.326
CGTTTGAG | -0.0747
CCACACGA | -0.0134
AAACGAAA | 0.199
AAGCTCAG | -0.164
TAAGCTCA | 0.0524
GATGTGAA | 0.00288
AACGCGTT | 0.0635
GTTCCCCA | -0.038
TAGGAACA | -0.0111
GATATACC | 0.178
AAACTTCC | 0.136
AGTGTGTA | 0.144
GAGTTATC | 0.0914
CACCTTTA | 0.145
ATACCTAG | 0.115
AAGAGGAG | -0.158
GATAGTGC | 0.165

Sequence | PBM 8-mer E-score
ACTAATGG | 0.191
CGGCGCCA | -0.12
ACGCCCCG | -0.272
CCTGACAC | -0.0828
CAGAGCCG | -0.328
GATTCAAA | 0.125
CATCCCAC | -0.161
AACAAGCT | -0.0831
GTTTGGGA | 0.222
CCACCCGC | -0.232
ACACCACT | 0.0056
AATGTCCA | 0.00458
CAAATTCA | 0.174
GATTTACC | 0.113
ATGGCAAT | 0.137
CTAGCTAC | -0.157
GACCGGGA | -0.204
GTAATTGA | 0.264
AGTCCGAG | -0.29
ACAACCAT | 0.00184
AGCTCACC | -0.255
CCACTGAG | -0.11
GATCCAAA | -0.108
TACTACTA | 0.181
AGCACTGG | -0.17

Sequence | PBM 8-mer E-score
CGCGATTC | -0.0253
AGATCACC | -0.118
ACCGCATC | -0.114
CGAATCAG | -0.121
ACACTCGT | -0.0141
CTCATCTA | 0.0114
TACCGGGA | -0.00065
AGTACAGA | 0.0485
AACATTAA | 0.397
CAAACAGG | -0.0105
CAGCGGGC | -0.334
CTCGAAAC | -0.0552
AATACAAG | 0.208
CAGCTCCA | -0.159
CCGCCCCC | -0.391
GCTTCATA | -0.0831
AAGCAAAA | 0.128
CACACGGG | -0.187
GCGATAGC | -0.262
TAGAGAAA | 0.0338
CTAATTTC | 0.0429
CAAATACA | 0.229
CTGTGGGA | -0.18
CCGAGGGA | -0.185
CGGGCCCC | -0.255

Sequence | PBM 8-mer E-score
GGTGACAC | -0.162
AGGCGCCA | -0.201
CAGATTCG | 0.0215
CCAGACCC | -0.274
ACCAGATG | -0.189
TCGCACGA | -0.0516
GGGACTCA | -0.218
TCAAGACA | -0.103
AGTTTGGC | 0.0422
AATAAAAG | 0.309
CCAAGTCA | -0.0101
CCTGCTCC | -0.302
AATCATGA | 0.205
AAAAACTT | 0.234
CGAGCAGA | -0.27
CGAGAAAG | -0.187
AAGTTTGC | 0.199
ATCATGGA | -0.06
GCCGCGGC | -0.0684
AACGCACA | 0.104
CATAGCGG | -0.166
ATTTCCTC | 0.0702
